Source: PubChem BioAssay AID361 (National Center for Advancing Translational Sciences (NCATS), 2006)
In all, about 51,000 compounds went through this assay and about 600 (1.2%) were called active. This list was built around the results that the source calls inconclusive (neither active nor inactive); the mix of calls is not that of the screen. Rule as the data show it: active = potency below about 11 µM; inconclusive = mostly about 12 µM to 25 µM; inactive = weaker than that;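 the screen sought inhibitors and activators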. Potencies of inconclusive entries are left out as doubtful fits.
Potency is read from the fitted curve at half-maximal effect.

Each compound was assayed on pyruvate kinase (Bacillus stearothermophilus) (assay: Pyruvate Kinase). Details: purified pyruvate kinase, luminescence ATP production; ribose 5-phosphate activator present at AC10.
Summary of the method: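 Partially purified B. stearothermophilus pyruvate kinase (10 nM final) with 2 mM PEP, 0.1 mM ADP and 0.7 nM ribose 5 phosphate in 50 mM imidazole pH 7.2, KCl, MgCl2; 2 h at room temperature, ATP formed read by luciferase luminescence.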
For `CC1CCCC(C)N1C(=O)c1cc(-c2ccc(Cl)c(Cl)c2)on1` (stereo not given), the Potency was active: 7.72 µM.
In the case of `NC(=O)c1oc2ccccc2c1NC(=O)c1nc2ccccc2s1`, the Potency is reported as inactive: > 57 µM.
With `CN1C(=O)CSc2ccc(NC(=O)Nc3ccccn3)cc21` the Potency was inconclusive [decreasing].
`Cc1cc(C(=O)CSc2nnnn2-c2ccccc2)c(C)n1CC1CCCO1` (stereo not given) was tested, and the Potency was inactive: > 57 µM.
With `c1ccc(-c2nc3ccccc3s2)nc1` the Potency was inconclusive [decreasing].
In the case of `COc1cccc(C(=O)Nc2ccc(C)cc2)c1`, the Potency is reported as inconclusive [decreasing].
`c1cc2c(cc1Nc1nc(-c3ccc4c(c3)OCO4)cs1)OCCO2` was tested, and the Potency was inconclusive [decreasing].
For `COCCn1c(C)cc(C(=O)CSc2nnc(C)s2)c1C`, the Potency was inconclusive [decreasing].
With `CC(C)(C)NC(=O)c1ccc(NC(=O)C2COc3ccccc3O2)cc1` (stereo not given) the Potency was inactive: > 57 µM.
`Cc1ccc2cc3cc(C(=O)NCCCN4CCCCCC4)oc3nc2c1` was tested, and the Potency was inconclusive [decreasing].
`Cc1ccc(-c2cc(C(=O)N3CCCC3)no2)cc1` was tested, and the Potency was active: 7.89 µM.
In the case of `O=C(Nc1ccc(N2CCOCC2)cc1)c1cnsn1`, the Potency is reported as active: 7.07 µM.
In the case of `O=C(c1cc2ccccc2o1)c1cccs1`, the Potency is reported as inconclusive [decreasing].
For `CCCCOC(=O)CSc1nc2c(cc1C#N)C(=O)CC(C)(C)C2`, the Potency was inactive: > 57 µM.
For `COc1cccc(C(=O)Cn2c(=N)n(C)c3ccccc32)c1`, the Potency was active: 2.48 µM.
In the case of `Cc1cc(C(=O)CN2C(=O)c3ccccc3S2(=O)=O)c(C)n1-c1ccccc1`, the Potency is reported as inconclusive [decreasing].
For `Cc1ccc2cc(C#N)c(NCCNC(=O)C3CC3)nc2c1C`, the Potency was inactive: > 57 µM.
For `Cc1ccccc1NC(=O)c1c(O)c2cccc3c2n(c1=O)CC3`, the Potency was inactive: > 57 µM.
`COc1cccc2sc(Nc3nc(C)c(C(C)=O)s3)nc12` was tested, and the Potency was inconclusive [decreasing].
`CC(C(=O)NCc1ccc2c(c1)OCO2)N1c2cccc3cccc(c23)S1(=O)=O` (stereo not given) was tested, and the Potency was active: 0.94 µM.
In the case of `Cc1ccc(C)c(Oc2nnnn2-c2ccccc2)c1`, the Potency is reported as inconclusive [increasing].
`N#CCCC12CCCCC1=Nc1ccccc12` (stereo not given) was tested, and the Potency was inactive: > 57 µM.
For `O=C1CC(SCCO)C(=O)N1c1ccc(Oc2ccccc2)cc1` (stereo not given), the Potency was inactive: > 57 µM.
With `O=C(Nc1ccc(N2CCCC2)cc1)c1cccc(F)c1` the Potency was inconclusive [decreasing].
`CC(CN1CCOCC1)OC(=O)c1ccc(Br)cc1` (stereo not given) was tested, and the Potency was inconclusive [increasing].
In the case of `NC(=O)C1CCN(c2oc(-c3ccccc3F)nc2S(=O)(=O)c2ccc(Cl)cc2)CC1`, the Potency is reported as active: 11.2 µM.
`COc1ccc(OC)c2[nH]c(=O)c(CCNS(=O)(=O)c3ccc(Cl)cc3)cc12` was tested, and the Potency was active: 4.35 µM.
For `Cc1ccc2c(c1)N(CC(=O)c1cccc(Cl)c1)C(=O)C(C)O2` (stereo not given), the Potency was inactive: > 57 µM.
With `COc1cc(NS(=O)(=O)c2ccc(C)cc2)c2ncccc2c1` the Potency was inconclusive [increasing].
For `Cc1cc(C(=O)COC(=O)c2n[nH]c3ccccc23)c(C)n1C`, the Potency was inconclusive [decreasing].
With `Cc1ccc(C(=O)/C=C/Nc2ccccc2C(N)=O)o1` the Potency was active: 6.15 µM.
`COc1cc2[nH]c3c(N4CCC(C(N)=O)CC4)ncnc3c2cc1OC` was tested, and the Potency was inactive: > 57 µM.
For `Nc1nc(C2CCCN2S(=O)(=O)c2ccc(Cl)cc2)cs1` (stereo not given), the Potency was inconclusive [increasing].
`COC(=O)c1ccc(NC(=O)C2CCCN2S(=O)(=O)c2ccc(F)cc2)cc1` (stereo not given) was tested, and the Potency was inconclusive [increasing].
`O=C(c1ccc2ccccc2c1)N1CCN(c2ccc(O)cc2)CC1` was tested, and the Potency was inconclusive [increasing].
With `COc1ccc(-c2noc(C3CCCN(S(=O)(=O)c4ccc(C)c(Cl)c4)C3)n2)cc1OC` (stereo not given) the Potency was inconclusive [increasing].
With `CCOC(=O)C1CCN(c2nc3ccccc3nc2C(C#N)C(=O)OC(C)COC)CC1` (stereo not given) the Potency was active: 5.59 µM.
In the case of `N[C@@H](Cc1ccccc1)c1nnc(SCc2ccccc2Cl)o1`, the Potency is reported as inconclusive [increasing].
`CC(C)Nc1oc(Cc2cccc3ccccc23)nc1C#N` was tested, and the Potency was inconclusive [increasing].
For `CN(C)c1ccc(NC(=O)CN2CCN(S(=O)(=O)c3cc(Cl)ccc3Cl)CC2)cc1`, the Potency was active: 9.45 µM.
In the case of `O=C(Nc1ccc(N2CCN(C(=O)c3ccccc3)CC2)cc1)c1ccc(Br)o1`, the Potency is reported as inactive: > 57 µM.
`CS(=O)(=O)NC1c2cccc3cccc(c23)C1N1CCOCC1` (stereo not given) was tested, and the Potency was inconclusive [increasing].
With `Cc1ccc2nc(SCCC#N)nc(C)c2c1` the Potency was inconclusive [decreasing].
For `Cc1ccc2nsnc2c1S(=O)(=O)N1CCCC1`, the Potency was inconclusive [increasing].
With `CC(=O)Nc1cccc(-c2nnc(-c3ccccc3)o2)c1` the Potency was inconclusive [decreasing].
In the case of `O=C(COc1nnc2ccccn12)N1CCN(S(=O)(=O)c2ccccc2)CC1`, the Potency is reported as inactive: > 57 µM.
For `Cc1cc(C)c(S(=O)(=O)N(CC(=O)NCc2cccnc2)C2CCCCC2)c(C)c1`, the Potency was inconclusive [increasing].
For `COc1cccc(C=Nc2ccc3c(c2)OCCO3)c1O`, the Potency was inconclusive [decreasing].
With `O=C(Oc1ccc(-c2nc(-c3ccccn3)no2)cc1)c1ccccc1` the Potency was active: 6.85 µM.
For `CCc1ccc(-c2cn3nc(C)c(C)nc3n2)cc1`, the Potency was active: 1.49 µM.
With `CC(=O)c1c(C)[nH]c(C(=O)Nc2ccc(C)cn2)c1C` the Potency was active: 4.36 µM.
For `O=C(NC1CCCC1)C1CCN(S(=O)(=O)c2cccc3cccnc23)CC1`, the Potency was inconclusive [increasing].
In the case of `Cc1ccc2cc3cc(C(=O)N4CCCCCC4)oc3nc2c1`, the Potency is reported as inconclusive [decreasing].
`Cc1ccc(-c2ccc(CCC(=O)O)n2NC(=O)c2cccs2)cc1` was tested, and the Potency was inactive: > 57 µM.
For `c1ccc(-c2nnc(-c3ccccn3)nn2)nc1`, the Potency was active: 7.06 µM.
With `CCCCOC(=O)c1cc(=O)[nH]c2ccccc12` the Potency was inconclusive [increasing].
With `O=C(CN1CCCC1)Nc1ccc(NC(=O)Nc2ccccc2Cl)cc1` the Potency was inactive: > 57 µM.
`CCC(c1nnnn1Cc1cccs1)N1CCN(C2CCCC2)CC1` (stereo not given) was tested, and the Potency was inactive: > 57 µM.
With `Cn1c(NCc2ccco2)nc2ccccc21` the Potency was inactive: > 57 µM.
In the case of `COc1ccc(OC)c2sc(N3CCCCC3)nc12`, the Potency is reported as inconclusive [decreasing].
`COC(=O)c1ccc(Nc2cc(C)nc3ncnn23)cc1` was tested, and the Potency was inconclusive [decreasing].
In the case of `CCC1CCc2c(sc3ncnc(N4CCOCC4)c23)C1` (stereo not given), the Potency is reported as “inactive”.
With `CCNC(=O)N1c2ccc(OC)cc2C(C)=CC1(C)C` the Potency was inactive: > 57 µM.
For `COc1ccc2nc(NC(=O)C3CCN(S(=O)(=O)c4cccc5nsnc45)CC3)sc2c1`, the Potency was active: 2.98 µM.
`O=S(=O)(NCc1ccco1)c1cccc2cccnc12` was tested, and the Potency was inconclusive [increasing].
For `CN(c1cccc(NC(=O)Nc2cccc(Cl)c2)c1)S(C)(=O)=O`, the Potency was inconclusive [decreasing].
For `CC1(C)Cc2c(sc(NC(=O)c3ccco3)c2C#N)CO1`, the Potency was inconclusive [decreasing].
For `COc1ccccc1CNC(=O)CCC(=O)Nc1nnc(C)s1`, the Potency was inconclusive [decreasing].
In the case of `Cc1cc(C)n(-c2ccn(Cc3ccc(Cl)cc3Cl)c(=O)n2)n1`, the Potency is reported as inconclusive [increasing].
In the case of `Cc1c(CN(C)C)c2c(n1C)C(=O)c1ccc(Br)cc1-2`, the Potency is reported as inconclusive [decreasing].
In the case of `Cc1cc(C)nc(N(C#N)CC(=O)N2CCC(C(N)=O)CC2)n1`, the Potency is reported as inconclusive [decreasing].
With `N#Cc1nc(-c2ccc(OCc3ccccc3Cl)cc2)oc1NCCCn1ccnc1` the Potency was active: 2.62 µM.
With `CN(C(=O)c1ccccc1)c1nc2ccccc2s1` the Potency was active: 8.47 µM.
For `CC(=O)c1sc(Nc2nc3ccc(F)cc3s2)nc1C`, the Potency was inconclusive [decreasing].
`COC(=O)c1cc2ccsc2n1CC(=O)N1CCCc2ccccc21` was tested, and the Potency was inconclusive [increasing].
For `N#C/C(=C1\CCCN1)c1nc(-c2ccccc2)cs1`, the Potency was inconclusive [decreasing].
For `O=C1OCCC1S(=O)(=O)c1ccc2ccccc2c1` (stereo not given), the Potency was inconclusive [increasing].
In the case of `Fc1ccc(-c2nnc(NC3=NCCCCC3)o2)cc1`, the Potency is reported as active: 4.51 µM.
`OCCOCCNc1ncnc2c1cnn2-c1ccc(Cl)cc1` was tested, and the Potency was active: 11 µM.
In the case of `N#CC(=C1CCCC1)c1nc(-c2ccccc2O)cs1`, the Potency is reported as active: 7.68 µM.
`Cc1ccc2c(c1)N(CCC(=O)NCc1ccco1)C(=O)CO2` was tested, and the Potency was inconclusive [increasing].
In the case of `Clc1ccc2oc(-c3ccccn3)nc2c1`, the Potency is reported as inconclusive [decreasing].
For `O=C(CN1C(=O)c2cccc3cccc1c23)NCC1CCCO1` (stereo not given), the Potency was inconclusive [increasing].
With `N=C1C(c2nc(-c3ccc(F)cc3)cs2)=C(O)CN1CCCN1CCOCC1` the Potency was inconclusive [decreasing].
For `N#Cc1c(/N=C/c2cccs2)sc2c1CCCCC2`, the Potency was active: 1.14 µM.
